The whole screen tested about 360,000 compounds, of which about 11,000 (3.1%) were called active. Inconclusive means that the source gave no clear call. Such entries were picked first, then a sample of the others. The call rests on the fitted dose curve; in most records, active means well fitted inhibition curve with a large enough effect; inconclusive means small, poorly fitted or top-dose-only effect; inactive means no such curve, though single readings can be large or run the other way. Potencies of inconclusive entries are left out as doubtful fits.
biological target: Schistosoma mansoni thioredoxin glutathione reductase (TGR) (UniProt Q962Y6); experiment: qHTS Assay for the Inhibitors of Schistosoma Mansoni Peroxiredoxins; details: purified TGR, DTNB reduction, TNB absorbance 405 nm; activity change, negative = inhibition: at 114 µM (top of the series) unless noted; further: nearly all actives have a fitted effect of over 60% in size
How it was run: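 Kinetic colorimetric format: TGR-catalysed, NADPH-driven DTNB reduction monitored via TNB absorbance. Enzyme dispensed at 20 nM; compound exposure 15 min at room temperature before reaction start.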
On the % scale 0 is the no-effect control and ±100 the full control effect; potency means the concentration at half of the fitted maximal effect; tags describe the fitted curve by direction and shape.

Row | SMILES | Potency | activity change, negative = inhibition
1 | CCc1ccccc1Nc1nn2c(=O)c3ccc(C(=O)Nc4cc(C)cc(C)c4)cc3nc2s1 | inconclusive [inhibitor, full curve, poor fit] | 
2 | Cc1cc(C)c2[nH]c(=O)c(C(c3nnnn3CC3CCCO3)N3CCC(C)CC3)cc2c1 (stereo not given) | active: 14.1 µM | 
3 | CCOC(=O)C1CCN(C(=O)Cn2cc(C(=O)C3CC3)c3ccccc32)CC1 | inconclusive [inhibitor, single point] | 
4 | COc1ccc(OC)c(S(=O)(=O)N2CCN(CC(O)CN3CCOCC3)CC2)c1 (stereo not given) | inconclusive [inhibitor, partial curve] | 
5 | Cc1c(O)ccc(C(=O)CN2CCN(Cc3ccc4c(c3)OCO4)CC2)c1O | inconclusive [inhibitor, partial curve] | 
6 | O=C1C(Cl)=C(NCCN2CCCCC2)C(=O)c2ccccc21 | active: 22.4 µM | 
7 | O=C(O)c1cccc(NC(=S)NC(=O)C(c2ccccc2)c2ccccc2)c1 | inconclusive [inhibitor, partial curve] | 
8 | O=C(NC1CC1)C1=C[C@@H](c2c[nH]c3ccccc23)C[C@@H](OCc2ccc(CO)cc2)O1 | inactive | 
9 | Cc1cccc(Oc2c([N+](=O)[O-])c(=O)n(C)c3ccccc23)c1 | active: 3.98 µM | 
10 | CC(=O)Nc1sc(N/N=C\c2ccco2)nc1-c1cccs1 | inconclusive [inhibitor, full curve, poor fit] | 
11 | Cc1ccc(-c2nn3c(C)nnc3c3ccccc23)cc1S(=O)(=O)NC(C)c1ccccc1 (stereo not given) | inactive | 
12 | CCOC(=O)c1ccccc1NC(=O)CCc1c(C)nc2ncnn2c1C | inactive | 
13 | CC1CCC(NC(=O)CN(C)S(=O)(=O)c2cccc3cccnc23)CC1 (stereo not given) | inconclusive [inhibitor, full curve, poor fit] | 
14 | Cc1ccc(NC(=S)NNc2ncc(C(F)(F)F)cc2Cl)c(C)c1 | inactive | 
15 | COc1cccc(Sc2ccccc2CN(C)C)c1 | inconclusive [inhibitor, single point] | 
16 | CCCCC1=CC2=C(c3ccco3)C(=O)C(C)(OC(=O)c3ccc(OC)cc3)C(=O)C2=CN1CCOC (stereo not given) | inconclusive [inhibitor, partial curve] | 
17 | Cc1c(C(=O)c2ccc(N(C)C)cc2)c2ccccn2c1CCC#N | inconclusive [inhibitor, full curve] | 
18 | O=C(N/N=C/c1c(O)n(Cc2ccccc2)c(=O)[nH]c1=O)c1ccncc1 | inconclusive [inhibitor, partial curve] | 
19 | COc1cccc(NC(=O)CN(C)S(=O)(=O)c2ccc3c(c2)CCC(=O)N3)c1 | inactive | 
20 | CCCNC(=O)c1ccc2c(=O)c(O)c(C)[nH]c2c1 | inconclusive [inhibitor, full curve, poor fit] | 
21 | CCCc1nnc(NC(=O)CCC(=O)N2CCN(c3ccccc3)CC2)s1 | inconclusive [inhibitor, full curve, poor fit] | 
22 | CCOc1ccc(S(=O)(=O)Nc2cccc(C(=O)NCC(C)(C)N3CCOCC3)c2)cc1 | inactive | 
23 | COc1cccc(-n2c(SCC(=O)Nc3nccs3)nnc2-c2ccoc2C)c1 | inactive | 

Row | SMILES | Potency | activity change, negative = inhibition
24 | CCc1ccc(OCCSc2nc3ccccc3n2CC(=O)O)cc1 |  | inconclusive: -36.8% [inhibitor]
25 | O=c1[nH]c(S)c(/C=C2\C=Nc3ccccc32)s1 | inconclusive [inhibitor, full curve] | 
26 | CC1=C(C)/C(=N\OS(=O)(=O)c2ccc(C)cc2)C=CC1=O | active: 7.94 µM | 
27 | CSc1nn(Cc2cccc(F)c2)c(N(C(C)=O)C(C)=O)c1S(=O)(=O)c1ccccc1 | inconclusive [inhibitor, full curve] | 
28 | Nc1nnc(Cc2c[nH]c3ccccc23)s1 | inconclusive [inhibitor, partial curve] | 
29 | Cn1c(Cc2ccccc2)nnc1SCC(=O)c1ccc(Br)s1 | inconclusive [inhibitor, partial curve] | 
30 | COc1ccccc1CNC(=O)C(=O)NCC(c1ccc2c(c1)OCO2)N1CCOCC1 (stereo not given) | inactive | 
31 | COc1cccc(-c2nc(CS(=O)CC(=O)NCc3ccc4c(c3)OCO4)c(C)o2)c1 (stereo not given) | inconclusive [inhibitor, partial curve] | 
32 | O=C(COC(=O)/C=C/c1ccco1)Nc1ncc(C(F)(F)F)cc1Cl | inconclusive [inhibitor, partial curve] | 
33 | Cc1ccc(C(C[N+](=O)[O-])n2nc(C)cc2C)cc1 (stereo not given) | inconclusive [inhibitor, partial curve, poor fit] | 
34 | CCCOc1ccc(/C=C/C(=O)NC2CCCCC2)cc1OC | inactive | 
35 | CCOc1cc(NC(=S)NC)c(OCC)cc1NC(=O)c1cccs1 | inconclusive [inhibitor, full curve, poor fit] | 
36 | COc1ccc(Nc2oc(COc3ccccc3OC)nc2C#N)cc1 | active: 17.8 µM | 
37 | Cc1ccc(C)c(CN2C(=O)c3ccccc3S(=O)(=O)c3ccc(C(=O)N4CCOCC4)cc32)c1 | inactive | 
38 | CC1=CC(=O)C=C(C)C1=NOC(=O)/C=C\c1ccccc1 | inactive | 
39 | CC(=O)c1ccc(N2CCN(C(=O)c3ccc4nc[nH]c4c3)CC2)cc1 | inconclusive [inhibitor, single point] | 
40 | C/C(=N/O)c1no[n+]([O-])c1/C(C)=N\O | active: 7.08 µM | 
41 | CCCCn1cnc2c1c(=O)n(CC(=O)c1cc(C)n(C)c1C)c(=O)n2CC(C)C |  | inactive: -10.3% [at 11.4 µM]
42 | CC(=O)Nc1ccc(S(=O)(=O)N(Cc2ccccc2)c2ccccc2F)cc1 | inactive | 
43 | CN1CCN(CCNC(=O)Cn2c(=O)c3cccn3c3ccc(F)cc32)CC1 | inconclusive [inhibitor, single point] | 
44 | Cc1ccc([N+](=O)[O-])cc1N/C=C1\CCc2ccccc2C1=O | inconclusive [inhibitor, partial curve, poor fit] | 
45 | CC(=O)C1=C(C)NC(SCC(=O)c2ccc(Cl)cc2)=C(C#N)C1CC(C)C (stereo not given) | inconclusive [inhibitor, full curve] | 
